# Some of the results follow.
# B1: Pp2-A2 (Arabidopsis thaliana), Q07098 (protein)
# chain: MPSNGDLDRQIEQLMECKPLSEADVRTLCDQARAILVEEYNVQPVKCPVTVCGDIHGQFYDLIELFRIGGNAPDTNYLFMGDYVDRGYYSVETVSLLVALKVRYRDRLTILRGNHESRQITQVYGFYDECLRKYGNANVWKYFTDLFDYLPLTALIESQVFCLHGGLSPSLDTLDNIRSLDRIQEVPHEGPMCDLLWSDPDDRCGWGISPRGAGYTFGQDIAAQFNHNNGLSLISRAHQLVMEGFNWCQDKNVVTVFSAPNYCYRCGNMAAILEIGENMEQNFLQFDPAPRQVEPDTTRKTPDYFL
# Legend:
# Experiment in all cases: glycan array binding signal (z-score within array); higher = stronger binding
# Settings in all cases: glycan notation: IUPAC condensed, linker removed
# [1] = target: Fuc(a1-2)Gal
# In short: (§1)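 Glycan array data came from 3228 arrays in the Consortium for Functional Glycomics database, and only arrays with an available protein sequence were kept. Glycan names were put into IUPAC-condensed notation, and columns mapping to the same glycan were averaged. The binding signal is a within-array Z-score, averaged across arrays of one protein sequence run at different concentrations or buffers and across linkers. A negative Z-score can be read as non-binding.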
# [2] = target: Fuc(a1-2)Gal(b1-3)GalNAc
# In short: as §1
# [3] = target: Fuc(a1-2)Gal(b1-3)GalNAc(a1-3)[Fuc(a1-2)]Gal(b1-4)Glc
# In short: as §1
# [4] = target: Fuc(a1-2)Gal(b1-3)GalNAc(a1-3)[Fuc(a1-2)]Gal(b1-4)GlcNAc
# In short: as §1
# [5] = target: Fuc(a1-2)Gal(b1-3)GalNAc(b1-3)Gal
# In short: as §1
# [6] = target: Fuc(a1-2)Gal(b1-3)GalNAc(b1-3)Gal(a1-4)Gal(b1-4)Glc
# In short: as §1
# [7] = target: Fuc(a1-2)Gal(b1-3)GalNAc(b1-4)[Neu5Ac(a2-3)]Gal(b1-4)Glc
# In short: as §1
# [8] = target: Fuc(a1-2)Gal(b1-3)GlcNAc
# In short: as §1
# [9] = target: Fuc(a1-2)Gal(b1-3)GlcNAc(b1-2)Man(a1-3)[Fuc(a1-2)Gal(b1-3)GlcNAc(b1-2)Man(a1-6)]Man(b1-4)GlcNAc(b1-4)GlcNAc
# In short: as §1
# [10] = target: Fuc(a1-2)Gal(b1-3)GlcNAc(b1-3)Gal(b1-4)Glc
# In short: as §1
# [11] = target: Fuc(a1-2)Gal(b1-3)GlcNAc(b1-3)[Fuc(a1-3)[Gal(b1-4)]GlcNAc(b1-6)]Gal(b1-4)Glc
# In short: as §1
# [12] = target: Fuc(a1-2)Gal(b1-3)[Fuc(a1-4)]GlcNAc
# In short: as §1
# [13] = target: Fuc(a1-2)Gal(b1-3)[Fuc(a1-4)]GlcNAc(b1-2)Man(a1-3)[Fuc(a1-2)Gal(b1-3)[Fuc(a1-4)]GlcNAc(b1-2)Man(a1-6)]Man(b1-4)GlcNAc(b1-4)GlcNAc
# In short: as §1
# [14] = target: Fuc(a1-2)Gal(b1-3)[Fuc(a1-4)]GlcNAc(b1-3)[Fuc(a1-3)[Gal(b1-4)]GlcNAc(b1-6)]Gal(b1-4)Glc
# In short: as §1
# [15] = target: Fuc(a1-2)Gal(b1-3)[Fuc(a1-4)]GlcNAc(b1-3)[Gal(b1-4)GlcNAc(b1-6)]Gal(b1-4)Glc
# In short: as §1
# [16] = target: Fuc(a1-2)Gal(b1-4)Glc
# In short: as §1
# [17] = target: Fuc(a1-2)Gal(b1-4)Glc6S
# In short: as §1
# [18] = target: Fuc(a1-2)Gal(b1-4)GlcNAc
# In short: as §1
# [19] = target: Fuc(a1-2)Gal(b1-4)GlcNAc(b1-2)Man(a1-3)[Fuc(a1-2)Gal(b1-4)GlcNAc(b1-2)Man(a1-6)]Man(b1-4)GlcNAc(b1-4)GlcNAc
# In short: as §1
# [20] = target: Fuc(a1-2)Gal(b1-4)GlcNAc(b1-3)Gal(b1-4)GlcNAc
# In short: as §1
# [21] = target: Fuc(a1-2)Gal(b1-4)GlcNAc(b1-3)Gal(b1-4)GlcNAc(b1-3)Gal(b1-4)GlcNAc
# In short: as §1
# [22] = target: Fuc(a1-2)Gal(b1-4)GlcNAc(b1-3)GalNAc
# In short: as §1
# [23] = target: Fuc(a1-2)Gal(b1-4)GlcNAc6S
# In short: as §1
# [24] = target: Fuc(a1-2)Gal(b1-4)[Fuc(a1-3)]GlcNAc
# In short: as §1
# [25] = target: Fuc(a1-2)Gal(b1-4)[Fuc(a1-3)]GlcNAc(b1-2)Man(a1-3)[Fuc(a1-2)Gal(b1-4)[Fuc(a1-3)]GlcNAc(b1-2)Man(a1-6)]Man(b1-4)GlcNAc(b1-4)GlcNAc
# In short: as §1
# [26] = target: Fuc(a1-2)Gal(b1-4)[Fuc(a1-3)]GlcNAc(b1-3)Gal(b1-4)[Fuc(a1-3)]GlcNAc
# In short: as §1
# [27] = target: Fuc(a1-2)Gal(b1-4)[Fuc(a1-3)]GlcNAc(b1-3)Gal(b1-4)[Fuc(a1-3)]GlcNAc(b1-3)Gal(b1-4)[Fuc(a1-3)]GlcNAc
# In short: as §1
# [28] = target: Fuc(a1-2)Gal6S(b1-4)Glc
# In short: as §1
# [29] = target: Fuc(a1-2)Gal6S(b1-4)Glc6S
# In short: as §1
# [30] = target: Fuc(a1-2)Gal6S(b1-4)GlcNAc
# In short: as §1
# [31] = target: Fuc(a1-2)[Gal(a1-3)]Gal
# In short: as §1
# [32] = target: Fuc(a1-2)[Gal(a1-3)]Gal(b1-3)GlcNAc
# In short: as §1
# [33] = target: Fuc(a1-2)[Gal(a1-3)]Gal(b1-3)GlcNAc(b1-2)Man(a1-3)[Fuc(a1-2)[Gal(a1-3)]Gal(b1-3)GlcNAc(b1-2)Man(a1-6)]Man(b1-4)GlcNAc(b1-4)GlcNAc
# In short: as §1
# [34] = target: Fuc(a1-2)[Gal(a1-3)]Gal(b1-4)Glc
# In short: as §1
# [35] = target: Fuc(a1-2)[Gal(a1-3)]Gal(b1-4)GlcNAc
# In short: as §1
# [36] = target: Fuc(a1-2)[Gal(a1-3)]Gal(b1-4)GlcNAc(b1-2)Man(a1-3)[Fuc(a1-2)[Gal(a1-3)]Gal(b1-4)GlcNAc(b1-2)Man(a1-6)]Man(b1-4)GlcNAc(b1-4)GlcNAc
# In short: as §1
# [37] = target: Fuc(a1-2)[Gal(a1-3)]Gal(b1-4)[Fuc(a1-3)]GlcNAc
# In short: as §1
# [38] = target: Fuc(a1-2)[Gal(a1-4)]Gal(b1-4)GlcNAc
# In short: as §1
# [39] = target: Fuc(a1-2)[GalNAc(a1-3)]Gal
# In short: as §1
# [40] = target: Fuc(a1-2)[GalNAc(a1-3)]Gal(b1-3)GalNAc(a1-3)[Fuc(a1-2)]Gal(b1-4)GlcNAc
# In short: as §1
# [41] = target: Fuc(a1-2)[GalNAc(a1-3)]Gal(b1-3)GlcNAc
# In short: as §1
# [42] = target: Fuc(a1-2)[GalNAc(a1-3)]Gal(b1-3)GlcNAc(b1-2)Man(a1-3)[Fuc(a1-2)[GalNAc(a1-3)]Gal(b1-3)GlcNAc(b1-2)Man(a1-6)]Man(b1-4)GlcNAc(b1-4)GlcNAc
# In short: as §1
# [43] = target: Fuc(a1-2)[GalNAc(a1-3)]Gal(b1-4)Glc
# In short: as §1
# [44] = target: Fuc(a1-2)[GalNAc(a1-3)]Gal(b1-4)GlcNAc
# In short: as §1
# [45] = target: Fuc(a1-2)[GalNAc(a1-3)]Gal(b1-4)GlcNAc(b1-2)Man(a1-3)[Fuc(a1-2)[GalNAc(a1-3)]Gal(b1-4)GlcNAc(b1-2)Man(a1-6)]Man(b1-4)GlcNAc(b1-4)GlcNAc
# In short: as §1
# [46] = target: Fuc(a1-2)[GalNAc(a1-3)]Gal(b1-4)GlcNAc(b1-3)Gal(b1-4)GlcNAc
# In short: as §1
# [47] = target: Fuc(a1-2)[GalNAc(a1-3)]Gal(b1-4)GlcNAc(b1-3)Gal(b1-4)GlcNAc(b1-3)Gal(b1-4)GlcNAc
# In short: as §1
# [48] = target: Fuc(a1-2)[GalNAc(a1-3)]Gal(b1-4)[Fuc(a1-3)]GlcNAc
# In short: as §1
# [49] = target: Fuc(a1-2)[GalNAc(a1-4)]Gal(b1-4)GlcNAc
# In short: as §1
# [50] = target: Fuc(a1-2)[GalNAc(b1-3)]Gal
# In short: as §1
# [51] = target: Fuc(a1-3)GlcNAc
# In short: as §1
# [52] = target: Fuc(a1-3)[Gal(b1-4)]Glc6S
# In short: as §1
# [53] = target: Fuc(a1-3)[Gal(b1-4)]GlcNAc
# In short: as §1
# [54] = target: Fuc(a1-3)[Gal(b1-4)]GlcNAc(b1-2)Man(a1-3)[Fuc(a1-3)[Gal(b1-4)]GlcNAc(b1-2)Man(a1-6)]Man(b1-4)GlcNAc(b1-4)GlcNAc
# In short: as §1
# [55] = target: Fuc(a1-3)[Gal(b1-4)]GlcNAc(b1-3)Gal(b1-3)[Fuc(a1-4)]GlcNAc
# In short: as §1
# [56] = target: Fuc(a1-3)[Gal(b1-4)]GlcNAc(b1-3)GalNAc
# In short: as §1
# [57] = target: Fuc(a1-3)[Gal(b1-4)]GlcNAc(b1-4)Gal(b1-4)[Fuc(a1-3)]GlcNAc
# In short: as §1
# [58] = target: Fuc(a1-3)[Gal(b1-4)]GlcNAc(b1-4)Gal(b1-4)[Fuc(a1-3)]GlcNAc(b1-4)Gal(b1-4)[Fuc(a1-3)]GlcNAc
# In short: as §1
# [59] = target: Fuc(a1-3)[Gal(b1-4)]GlcNAc(b1-6)[Gal(b1-3)GlcNAc(b1-3)]Gal(b1-4)Glc
# In short: as §1
# [60] = target: Fuc(a1-3)[Gal(b1-4)]GlcNAc6S
# In short: as §1
binder,measurement,setting,value
B1,glycan array binding signal (z-score),[1],-0.206
same,glycan array binding signal (z-score),[2],-0.504
same,glycan array binding signal (z-score),[3],-0.448
same,glycan array binding signal (z-score),[4],-0.349
same,glycan array binding signal (z-score),[5],0.104
same,glycan array binding signal (z-score),[6],-0.127
same,glycan array binding signal (z-score),[7],-0.479
same,glycan array binding signal (z-score),[8],-0.844
same,glycan array binding signal (z-score),[9],-0.444
same,glycan array binding signal (z-score),[10],-0.206
same,glycan array binding signal (z-score),[11],-0.539
same,glycan array binding signal (z-score),[12],-0.581
same,glycan array binding signal (z-score),[13],2.08
same,glycan array binding signal (z-score),[14],-0.327
same,glycan array binding signal (z-score),[15],-0.633
same,glycan array binding signal (z-score),[16],-0.175
same,glycan array binding signal (z-score),[17],0.143
same,glycan array binding signal (z-score),[18],-0.593
same,glycan array binding signal (z-score),[19],-0.503
same,glycan array binding signal (z-score),[20],-0.543
same,glycan array binding signal (z-score),[21],-0.448
same,glycan array binding signal (z-score),[22],-0.628
same,glycan array binding signal (z-score),[23],0.385
same,glycan array binding signal (z-score),[24],-0.231
same,glycan array binding signal (z-score),[25],1.48
same,glycan array binding signal (z-score),[26],-0.337
same,glycan array binding signal (z-score),[27],-0.4
same,glycan array binding signal (z-score),[28],-0.157
same,glycan array binding signal (z-score),[29],0.903
same,glycan array binding signal (z-score),[30],-0.734
same,glycan array binding signal (z-score),[31],-0.273
same,glycan array binding signal (z-score),[32],-0.468
same,glycan array binding signal (z-score),[33],-0.613
same,glycan array binding signal (z-score),[34],-0.444
same,glycan array binding signal (z-score),[35],-0.404
same,glycan array binding signal (z-score),[36],-0.113
same,glycan array binding signal (z-score),[37],-0.029
same,glycan array binding signal (z-score),[38],-0.244
same,glycan array binding signal (z-score),[39],-0.337
same,glycan array binding signal (z-score),[40],0.21
same,glycan array binding signal (z-score),[41],-0.343
same,glycan array binding signal (z-score),[42],-0.54
same,glycan array binding signal (z-score),[43],-0.32
same,glycan array binding signal (z-score),[44],-0.242
same,glycan array binding signal (z-score),[45],-0.296
same,glycan array binding signal (z-score),[46],-0.661
same,glycan array binding signal (z-score),[47],0.638
same,glycan array binding signal (z-score),[48],-0.064
same,glycan array binding signal (z-score),[49],-0.461
same,glycan array binding signal (z-score),[50],-0.666
same,glycan array binding signal (z-score),[51],-0.508
same,glycan array binding signal (z-score),[52],-0.07
same,glycan array binding signal (z-score),[53],-0.104
same,glycan array binding signal (z-score),[54],-0.237
same,glycan array binding signal (z-score),[55],-0.182
same,glycan array binding signal (z-score),[56],0.295
same,glycan array binding signal (z-score),[57],1.34
same,glycan array binding signal (z-score),[58],-0.435
same,glycan array binding signal (z-score),[59],-0.662
same,glycan array binding signal (z-score),[60],0.633
